This note sets out measurements from patent US11324742B2, “Treatment of demyelinating diseases” (Victoria Link Ltd., priority 2018, dated 2022).

Like-named read-outs stand apart in the source and are kept apart here. Bounds are passed on as bounds.

Experiment [1] has as its system experimental autoimmune encephalomyelitis (EAE) model of MS.
Experiment [2] shares this test system. Briefly: EAE model of MS in male mice, treatment from disease onset. In kind it is in vivo, male C57BL/6 mice. The note with it: 0.01 mg/kg daily i.p. from onset.
The test system is the same in experiment [3]. Nature of the experiment: EAE model of MS, daily treatment from day 17 (disease score, total disability, weight). In kind it is in vivo, female C57BL/6 mice.
The mark [4] stands for this setting: 0.01 mg/kg i.p. daily from onset (Example 31).
Setting [5] is: daily i.p. from onset, 0.003-0.1 mg/kg all significant.

With `Oc1ccc2c3c1O[C@H]1c4[nH]c5c(c4C[C@@]4(O)[C@@H](C2)N(CC2CC2)CC[C@]314)C[C@@]1(O)[C@H]2Cc3ccc(O)c4c3[C@@]1(CCN2CC1CC1)[C@H]5O4` [norBNI], the “effect on nalfurafine-mediated full recovery (score <0.5)” value in experiment [1] (norBNI 10 mg/kg i.p. weekly with nalfurafine 0.01 mg/kg i.p. daily (Example 23)) was “abolishes the ability of nalfurafine to enable full recovery from paralysis”. Besides, the “effect on nalfurafine-mediated % recovered and days in recovery” value in experiment [1] (norBNI 10 mg/kg i.p. weekly with nalfurafine 0.01 mg/kg i.p. daily (Example 24)) is “abolishes the ability of nalfurafine to enable and sustain recovery from paralysis”.
Take `CN(C(=O)/C=C/c1ccoc1)[C@@H]1CC[C@@]2(O)[C@H]3Cc4ccc(O)c5c4[C@@]2(CCN3CC2CC2)[C@H]1O5` [nalfurafine, (E)-N-[(4R,4aS,7R,7aR,12bS)-3-(cyclopropylmethyl)-4a,9-dihydroxy-1,2,4,5,6,7,7a,13-octahydro-4,12-methanobenzofuro[3,2-e]isoquinoline-7-yl]-3-(furan-3-yl)-N-methylprop-2-enamide]: the “disease score, recovery from paralysis” value in experiment [2] is reported as “effective at enabling functional recovery from paralysis”; in experiment [1] (daily i.p. from onset (score ≥1), 0.3, 0.1, 0.03, 0.01 or 0.003 mg/kg), “reduction of disease”; in experiment [1] (daily i.p. from onset, 0.01 and 0.03 mg/kg), “complete”. For the same molecule, the “number of days in recovery” value in experiment [2] was “sustained functional recovery”; in experiment [1] (setting [4]), “sustained recovery”; in experiment [1] (setting [5]), “sustained functional recovery”. In addition, the figures for the “percentage of mice recovered (score ≤0.5 by day 23)” value in experiment [2], in experiment [1] (0.1 mg/kg daily i.p. from onset) and in experiment [1] (setting [5]) were “promotes full recovery”, 100% and “full functional recovery”, respectively. Besides, in experiment [1] (0.01 mg/kg i.p. daily from onset (Example 30)), the “disease score, functional recovery” value is “superior to clemastine fumarate”. For the same molecule, in experiment [1] (setting [4]), the “percentage of mice recovered (score <0.5 by day 23)” value is reported as “all of the mice recover”. In addition, the “recovery (disease score)” value is “does enhance recovery effectively” in experiment [1] (0.01 mg/kg i.p. daily throughout the experimental course (longer duration)) and “does not enhance recovery” in experiment [1] (0.01 mg/kg i.p. for only four days from onset). Further, the “disease score (full recovery from paralysis)” value in experiment [1] (EAE examples described herein, except short 4-day course) was below 0.5. The figures for the “dose showing the most rapid recovery” value in experiment [1] (daily i.p. from onset (Example 10)) and in experiment [3] (daily i.p. from day 17 (Example 1)) were 0.01 mg/kg and 0.1 mg/kg, respectively. Moreover, the “peak disease score during first EAE episode” value in experiment [1] (daily i.p. from onset, 0.3-0.003 mg/kg, vs vehicle) is given as “no difference in peak disease score”. In experiment [1] (dose-response curve fitted from 0.1 mg/kg to vehicle, daily i.p. from onset), the “EC50 for % recovery” value is below 0.001 mg/kg. Besides, in experiment [1] (i.p., effective dose shown in FIG. 10), the “Mouse dose for EAE (effective dose)” value was found to be 3 µg/kg/day. Also, in experiment [1] (nalfurafine 0.01 mg/kg i.p. daily in the presence of norBNI 10 mg/kg i.p. weekly), the disease score result is recorded as “effective at reducing disease”. The “reduction in disease (total disability)” value in experiment [3] (0.1 mg/kg daily i.p. from day 17, day 45) came out at 60%. Moreover, the “disease score (0-5), recovery from paralysis” value is “complete” in experiment [3] (daily i.p. from day 17, 0.1 and 0.03 mg/kg); “reduction of disease” in experiment [3] (daily i.p. from day 17, 0.3, 0.1, 0.03 or 0.01 mg/kg, over 45 days). For the same molecule, the “% change in body weight” value in experiment [3] (daily i.p. from day 17, 0.3, 0.1 or 0.03 mg/kg) is listed as “recover from EAE-induced weight loss”. Moreover, in experiment [3] (daily i.p. from day 17, 0.3, 0.1 or 0.03 mg/kg, by day 45), the “total disability (AUC of daily disease score)” value is “significantly lower total disability”. Further, the onset of disease result in experiment [3] (mice not sick at start of treatment (day 17), 0.3, 0.1 or 0.03 mg/kg i.p. daily) was “did not alter the onset of disease”. The “recovery from paralysis (disease score)” value in experiment [3] (mice not sick at start of treatment (day 17), 0.3, 0.1 or 0.03 mg/kg i.p. daily, vs vehicle) is “rapid recovery from paralysis”.
